# Assay results from the supplement of paper PMC3334620.
# Over roughly 33,000 sequences, “E-score (-0.5 to 0.5)” has its median near -0.035; the highest 2% begin near 0.34. This is one part of the list.
# Target: T1, Mot3 (UniProt P54785)
# T1 sequence: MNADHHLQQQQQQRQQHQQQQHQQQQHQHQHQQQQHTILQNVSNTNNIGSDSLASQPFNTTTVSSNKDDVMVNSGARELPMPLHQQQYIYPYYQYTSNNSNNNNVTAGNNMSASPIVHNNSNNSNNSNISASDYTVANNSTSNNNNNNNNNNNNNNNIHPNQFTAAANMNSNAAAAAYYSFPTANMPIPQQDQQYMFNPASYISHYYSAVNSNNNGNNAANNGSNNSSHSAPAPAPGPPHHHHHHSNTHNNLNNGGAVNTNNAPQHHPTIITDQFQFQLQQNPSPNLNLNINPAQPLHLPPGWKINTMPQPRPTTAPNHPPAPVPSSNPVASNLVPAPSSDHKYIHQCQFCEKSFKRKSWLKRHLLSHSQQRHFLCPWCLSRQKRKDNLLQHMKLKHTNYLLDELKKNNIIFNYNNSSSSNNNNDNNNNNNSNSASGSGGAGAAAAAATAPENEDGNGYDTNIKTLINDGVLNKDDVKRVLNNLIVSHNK
# Test: PBM E-score (8-mer binding enrichment) (E-score (-0.5 to 0.5)); higher = stronger / more preferred TF binding; most listed sequences are background and not binding sites
# Details: protein concentration: 200 nM; construct: GST-full length
# Method in brief: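 E-scores (a modified Wilcoxon-Mann-Whitney statistic) were assigned by the Universal PBM Analysis Suite to every ungapped eight-base word pooled with its reverse complement. The input came from universal all-10-mer Agilent arrays made double-stranded by primer extension and probed with GST-tagged yeast transcription factors at about 100-200 nM. Fluorescent anti-GST detected bound protein, and masliner normalised the scans.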
row,Sequence,PBM E-score
1,CACTTAGC,-0.135
2,ACCTATCC,-0.0553
3,CATGACTA,-0.00873
4,AATTAATG,0.034
5,CCCACAAG,-0.0301
6,CAAGGAGC,-0.0153
7,AAGGATCG,0.0926
8,GAGGACGC,-0.122
9,GAATGAGC,-0.0737
10,GAGCTGGC,-0.259
11,CCGTAGTC,-0.262
12,ACACAGGA,0.295
13,CGTCCAGC,-0.17
14,GCATGAGC,-0.115
15,ATTGTGGC,-0.0184
16,AAACCTCA,-0.122
17,AAACGACC,-0.0983
18,ATATCCGA,-0.0238
19,AGTATCCG,-0.0586
20,ACGGAGTC,-0.244
21,CCCCGGTA,-0.335
22,CACCCCCC,-0.273
23,AAAACAGC,-0.0141
24,CACGGACC,-0.00933
25,GTCCGATA,-0.121

row,Sequence,PBM E-score
1,TGTCGCAA,0.0879
2,AACCCTAG,0.0349
3,AGAAAGTA,0.121
4,GGCGCGAC,0.00273
5,CCGTGCAC,-0.285
6,AAATGCCA,-0.105
7,GGTCATAA,-0.061
8,ACGTCAAG,0.00531
9,AAGGCACA,0.492
10,TAGGGTAA,0.0681
11,ACGTGAAA,0.323
12,ATCATGAT,0.0944
13,CGCCATTC,-0.202
14,ACCCACTA,-0.102
15,AGTGCCCC,-0.292
16,CATCGAGG,0.0972
17,GTGCTCAA,0.0538
18,CCTCCCCC,-0.214
19,CCCGAATC,-0.243
20,TCGCCTCA,-0.043
21,GTATGCGA,0.0114
22,AGCGTACC,0.113
23,ACAGATAA,0.234
24,AATCAATC,0.0571
25,CTCCGTTA,-0.0131

row,Sequence,PBM E-score
1,GATGTTAA,0.268
2,ATCCTCCC,-0.24
3,CATTACCA,0.0379
4,AGGCGGGG,-0.117
5,CAAGGACC,0.0666
6,ACGTGTAA,0.414
7,AAGCGCAG,-0.124
8,ATTATTTA,0.19
9,ATATTCGA,-0.121
10,CCTTACTA,-0.0342
11,ACACTGTA,0.13
12,TCTCTCCA,-0.208
13,TCCCAGAA,-0.18
14,CACTACAG,0.127
15,CGGAGTAC,-0.147
16,GGTAACCA,0.0763
17,ATGTAGTC,0.287
18,GCTTTGAA,-0.0793
19,TGATCCCA,-0.142
20,ACGTGAAC,-0.0329
21,CGTGGAAC,-0.263
22,ATTGTGGA,0.0501
23,GACGGGGA,-0.354
24,CGCGGGCC,-0.0658
25,CCATTCAG,-0.162

row,Sequence,PBM E-score
1,CAGATGCC,-0.0717
2,GCTTGGTA,-0.00245
3,AGGTCCTA,-0.217
4,GGATGGGA,-0.214
5,CATGGTAC,-0.048
6,CCCGTGAG,-0.175
7,CCCGCAGG,0.152
8,TAGTACAA,0.216
9,AAAAGCCA,0.171
10,CGCACTTA,-0.067
11,TCGGTACA,0.141
12,ACGTCAGG,-0.098
13,CATCGGGG,-0.203
14,AAAGGCTG,0.0993
15,CACTTCTA,0.00307
16,AAGAACGA,0.0545
17,CTGATCAC,-0.15
18,TCTTTACA,0.389
19,CGCTCCAC,-0.234
20,CATTTTAG,0.0505
21,ACAGCCTC,-0.00172
22,AGCTAAAA,0.0642
23,ATGGCATG,0.191
24,TAGAGCAA,0.105
25,ATTCGAAG,0.0612

row,Sequence,PBM E-score
1,GGTACTCA,0.0108
2,ATAGCGAT,-0.11
3,AGGGCCTC,-0.148
4,CGCGGTAA,0.204
5,AAGGCTGT,0.00261
6,GGTCGAAA,-0.0692
7,GACCCTAC,-0.177
8,CTGCCGTA,-0.0781
9,GCACCATA,0.017
10,TATCACAA,0.072
11,CTTTTGTC,0.0279
12,CCCTTCAC,-0.114
13,GGTTCGTA,-0.0682
14,TAACGATA,0.0454
15,AGAACCTG,0.156
16,ATGTCGTA,0.191
17,GATTAAAC,0.0928
18,CGTGTCCA,0.0828
19,AGGGACTC,-0.387
20,ACCAAGTG,-0.143
21,AGGGCGGA,-0.316
22,CAGCTCAG,-0.188
23,GTCGGCGA,-0.208
24,TGATCGAA,0.0888
25,TATGCCGA,-0.0784

row,Sequence,PBM E-score
1,AATGGTGT,0.113
2,ATATTTCC,-0.0617
3,CCTGTCCC,-0.19
4,CTTCTGCC,-0.117
5,GTTTGGCA,-0.0797
6,AGCGACAA,-0.129
7,AAGGTTTG,0.0771
8,GCCGTCAA,-0.127
9,CGAGCTTA,-0.135
10,CCTGATCC,0.0889
11,AAGCTTGT,0.196
12,AAATACCC,-0.0215
13,TATGGCAA,-0.0849
14,CCTATCTC,-0.0667
15,CTGGAGCA,-0.299
16,GACGGCTC,-0.209
17,CATACAGA,-0.0665
18,ATGGAGGC,0.107
19,CTACGTAA,0.272
20,ATGCCTGC,0.407
21,AAGTTCGA,0.0884
22,AGTCAACT,-0.198
23,CTAGTGCA,-0.0833
24,CTGTACGC,0.0458
25,GCCGAAAA,-0.0443

row,Sequence,PBM E-score
1,TGTGCCAA,0.042
2,GCCAAACA,-0.156
3,GCCGCACC,-0.122
4,CCTGACAG,0.00724
5,CCAAGCTC,-0.134
6,CACAATAA,-0.0556
7,CAGTATTC,-0.0628
8,CAATCGGC,-0.236
9,ACAAATTC,-0.00971
10,AGGGCTCA,-0.0909
11,ACAGTACT,0.0809
12,CTCCCGTC,-0.0798
13,AATCGGGA,-0.0982
14,CTATCGAC,0.0438
15,GCAAAGCA,0.0102
16,GCTCGGCC,-0.336
17,CTCGAACA,0.0352
18,CAATTGAC,0.0557
19,AGTTCTAC,0.106
20,ACCGACCG,-0.193
21,CCGTAGCC,-0.115
22,ACTTACTG,-0.0769
